These results are taken from the supplement of paper PMC11417369.

± gives the standard deviation of the averaged measurements. The list shows a part of the results.

This experiment deals with PfAP2-LT AP2 domain (GST-tagged). Kind of experiment: gcPBM binding intensity (ln(normalized median fluorescence intensity)); higher = stronger DNA binding. In a few lines: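 Using an Agilent 4 × 180k array, primer-extended double-stranded 36-bp intergenic genomic probes and negative controls were exposed for 1 h to GST-fused P. falciparum DNA-binding domains expressed in E. coli. Binding was carried out in 1× PBS with 1% milk, 0.2 mg/ml BSA, 0.5% salmon testes DNA and 0.03% Triton X-100, and protein was detected with Alexa488 anti-GST antibody and a 488 nm scan. Binding intensity is the highest Masliner-normalised natural-log median intensity across replicate spots of either probe orientation.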
On to “CATAATACAAATGTGATACCTGAAAATGACTTATTA [CACACA_negctrl_site994]”, for which the “gcPBM binding intensity (ln)” value stood at 8.78 ± 0.49.
The same measure for “TGCTACATAATATGTACACACATATACATATTTATA [CACACA_site6545]”: 8.98 ± 0.37; for “GTATGATTAAATAAAGGTACACTTATATTTATTTAT [XGTACX_site6966]”: 8.56 ± 0.45.
As for “TATCACATTTATGAGAGTACATAATTAATTCATGAT [XGTACX_site7850]”, the “gcPBM binding intensity (ln)” value came out at 8.63 ± 0.4.
For “TTTTATTTTATATAACAACAAAATGGAAATATATAT [GTGCAC_negctrl_site71]”, the “gcPBM binding intensity (ln)” value came out at 8.3 ± 0.48.
In the case of “GTCAATATTTAGATATGTACTAAGGAGTGCTATATA [XGTACX_site222]” it was 8.77 ± 0.51; in that of “ATATTATGAAGGGATATTTTCAAAAATATTAGGAGA [CACACA_negctrl_site942]”, 8.49 ± 0.49.
In the case of “TAAATGAAAATAAATTAACACACAATTTTAATATTG [CACACA_site8360]” it was 8.62 ± 0.46.
As to “AATTATACATATATTTAACACACATTTTATAAAGTG [CACACA_site8362]”, the “gcPBM binding intensity (ln)” value was found to be 8.81 ± 0.32.
Regarding “ATATATATATATAATTGTACATGTGTGTATAATTTG [XGTACX_site2417]”, the “gcPBM binding intensity (ln)” value is 9.38 ± 0.18.
The same measure for “ATACAACAGATATATACACACATATAACAATAATAA [CACACA_site7560]”: 9.38 ± 0.43; for “TTGGAATAATATAAATAAATAAATATATATATATAT [CACACA_negctrl_site900]”: 8.91 ± 0.092; for “AAAAAAAAAAAATGTGCACACGCGTACACCCAAAAA [CACACA_site8614]”: 9.03 ± 0.4.
Regarding “TTTCTTTTTGTTCGTGTACACACATGAAATTTATAA [CACACA_site8466]”, the “gcPBM binding intensity (ln)” value was 8.95 ± 0.45.
The same measure for “CAATTTTTATGTGTGTGTACTCATTTGTTTTATAAA [XGTACX_site406]”: 9.21 ± 0.35.
The same measure for “AATAGATATATAAATACACACAAACATACCTATATA [CACACA_site7823]”: 9.41 ± 0.32; for AAACAAAGGGAACATGTGCACTTACAAAAAAAAAGA: 9.03 ± 0.54.
In the case of “TCACACCTTTTTGGTTGTACTTAAATTTCTTTTTTT [XGTACX_site6438]”, the “gcPBM binding intensity (ln)” value is 8.49 ± 0.49.
Take “TTCCCTTATTTTGTATGTACACAATTTATCATGTTG [XGTACX_site2896]”: the “gcPBM binding intensity (ln)” value was 9.21 ± 0.43.
The same measure for “ATATATATATATGCATGTACATATATTTGTTATATC [XGTACX_site3197]”: 9.62 ± 0.2; for “ATTTATTTTAATTTTTTTTTTTCTCTTTTGGATCTA [CACACA_negctrl_site1408]”: 8.39 ± 0.54; for “ATTAGGCATATTTTCTGTACACAATAATAAAAAAAA [XGTACX_site3957]”: 8.49 ± 0.46.
In the case of “TGTAATATGAAATGTGTACACACGCACCCACAAAAA [CACACA_site8948]” it was 9.38 ± 0.36; in that of “TTCTCAAAGTTTACGTGTACATAAATTATATAAATG [XGTACX_site2622]”, 8.48 ± 0.42.
The same measure for “AATGAATTTAATTCTACTATTTTTTTTTTAAATATT [XGTACX_negctrl_site296]”: 8.33 ± 0.35.
Consider “TACATACATACATACACACACACATCTATATTTATA [CACACA_site6171]”, for which the “gcPBM binding intensity (ln)” value is 9.81 ± 0.26.
In the case of “GACAGATTATAGCATAGTACTCATACATACATACAT [XGTACX_site1252]” it was 9.09 ± 0.46; in that of “TTTCAAAAATTATTTTGTACATATAATTAATATACG [XGTACX_site512]”, 8.51 ± 0.38.
The same measure for “TTTTATTATTTGTCTTGTACTCATTGTAAGAGTATG [XGTACX_site1538]”: 8.7 ± 0.42; for “AAAAAAAAAAAAATGGTGCAACTTTGTTAAAGGAAA [GTGCAC_site9950]”: 8.57 ± 0.6.
For the sequence “ATTTAAAAGTTGGTAGTGCATTAAAAATAACAAAAA [GTGCAC_site9835]”, the “gcPBM binding intensity (ln)” value came out at 8.55 ± 0.53.
In the case of “AATTTCTTCCATTGTAGTACTCAATTTTTTTTTGTT [XGTACX_site5847]” it was 9.05 ± 0.42; in that of “GTGTAATATTATATATATATATATAATATATATACA [CACACA_negctrl_site263]”, 8.86 ± 0.33.
Consider “CACATATACAAAAAGAAATGTTTAGTTGAAAATTAA [CACACA_negctrl_site1407]”, for which the “gcPBM binding intensity (ln)” value came out at 8.49 ± 0.51.
The same measure for “AAAAATTTGGCATACACACACACACGCACACGCACA [CACACA_site6422]”: 10.2 ± 0.21.
The same measure for “AATTATACTCACGTTACACACACACTATAAATATAT [CACACA_site7863]”: 9.48 ± 0.35.
For “ATTAATATGAATAAAACACACATATATAACTTGTAA [CACACA_site6989]”, the “gcPBM binding intensity (ln)” value was determined as 8.86 ± 0.38.
Regarding “TATTACATTATTCAAAAAAATTTATATGGTTATAGG [CACACA_negctrl_site1657]”, the “gcPBM binding intensity (ln)” value was determined as 8.23 ± 0.37.
With “TGATAATAAGCATACACACACACACCCAAAAAAAAA [CACACA_site721]”, the “gcPBM binding intensity (ln)” value was determined as 10.2 ± 0.25.
As to “AAATAAAAAAAAAAAAAAAATAACTTAAATGGGATA [TGCATGCA_negctrl_site595]”, the “gcPBM binding intensity (ln)” value amounted to 8.33 ± 0.58.
The same measure for “AACTAAATGTTATTCGCACACGGAATTTATTTAATG [CACACA_site3664]”: 8.96 ± 0.36.
The same measure for “ATATATATATATATATATATATATATGATTATTACT [GTGCAC_negctrl_site109]”: 9.9 ± 0.35; for “TAAACTATATTTACATGTACATATAATATTAAATAA [XGTACX_site3528]”: 8.49 ± 0.4; for “CCTATAAAACCATATACACACATATAAATAAAAAAA [CACACA_site7809]”: 9.02 ± 0.48.
